From PMC9574860, “Chemical Toolkit for PARK7: Potent, Selective, and High-Throughput” (Journal of Medicinal Chemistry, 2022)
The campaign covered roughly 7,900 compounds. About 400 (5.1%) showed an effect of 50% or more. The list shows a part of the results.

target: Parkinson's disease protein 7 (PARK7/DJ1) (human, UniProt Q99497); experiment: primary screen, percent inhibition; read as competition with a fluorescent probe by fluorescence polarization; higher = more effect of the substance; conditions: 100 µM
Procedure, shortened: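 Covalent fragments at 100 μM final were incubated 2 h with 0.2 μM PARK7, then 20 nM probe JYQ-107 added for a further 2 h. Fluorescence polarization read at 480/520 nm; relative FP loss versus reference controls gave remaining enzyme activity.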

Sequence of Parkinson's disease protein 7 (PARK7/DJ1) (Q99497 whole entry, looked up, the tested form may be a part): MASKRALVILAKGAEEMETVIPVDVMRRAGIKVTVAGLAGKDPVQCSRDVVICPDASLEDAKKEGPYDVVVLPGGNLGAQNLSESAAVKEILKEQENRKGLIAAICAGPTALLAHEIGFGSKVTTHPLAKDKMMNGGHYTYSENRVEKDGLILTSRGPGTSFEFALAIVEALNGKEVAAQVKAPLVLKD

SMILES | Inhibition %
Cc1ccccc1-c1noc(=O)[nH]1 | 8.1%
CN1C(=O)CSC1=CC#N | 11.6%
Cc1ccc(OCC2CO2)c(C)c1 (stereo not drawn) | 4.72%
O=C(CCl)NCCCC1CCCCC1 | 8.8%
O=C(Nc1ccccc1)C1CCCN(C2CCOC2=O)C1 (stereo not drawn) | 7.52%
COc1ccc(-c2nc(C#N)c(N(C)C)o2)cc1 | 5.62%
CN1CCCCC1CCCl.Cl (stereo not drawn) | -3.52%
COc1cc(Cl)ccc1S(=O)(=O)n1ccnc1C(C)C | 5.37%
C=CC(=O)NC1CC(OCc2ccccc2)C1(C)C (stereo not drawn) | 1.66%
Cc1cccc(C)c1NC(=O)CCl | 6.2%
O=S(=O)(c1cccc(F)c1)N1CCCC(C2OCCO2)C1 (stereo not drawn) | 1.15%
CNC(=O)C(C)(C)Cn1c(S)nc2ccccc2c1=O | 9.98%
CCc1n[nH]c(NC(=O)c2cccnc2S)n1 | 3.06%
Clc1cnn(CCC2OCCO2)c1 | 9.67%
COc1cc(C)c(Cl)cc1S(=O)(=O)n1ccnc1C | 5.78%
COc1ccc(S(N)(=O)=O)cc1NC(=O)CCl | 2.41%
Sc1nncc(-c2cccs2)n1 | 94.3%
Cc1ccc(C=C(C#N)C(=O)N2CCOCC2)s1 | 9.92%
CC1CC(N)CCN1C(=O)C=Cc1cncc(F)c1 (stereo not drawn) | 3.72%
O=C(CCl)NC1(c2ccc3c(c2)OCCO3)CCCC1 | 3.8%
O=C(NCc1ccc2c(c1)OCO2)n1ccnc1 | 99.9%
CCC(C)c1ccc(NC(=O)CCl)cc1 (stereo not drawn) | 99.1%
CC1(C)OB(c2ccc3c(c2)C(=O)OCC3)OC1(C)C | 7.34%
N#Cc1c(F)cccc1N1CCC(C2OCCO2)CC1 | 9.67%
CCOc1ccc(S(=O)(=O)n2cnc(C)c2)cc1 | 3.31%
Cc1ccc(S(=O)(=O)OCC2CCOCO2)cc1 (stereo not drawn) | 3.3%

SMILES | Inhibition %
O=C(CCl)N(c1ccccc1)C1C=CS(=O)(=O)C1 (stereo not drawn) | 12.2%
N#Cc1ccnc(Cl)n1 | 3.95%
O=C(N1CCc2[nH]c3ccc(F)cc3c2C1)n1ccnc1 | 36.3%
CC(C1CCOCC1)n1c(S)nc2ccccc2c1=O (stereo not drawn) | 4.97%
OB(O)c1ccc(C2CC2)cc1Cl | 2.09%
Sc1nnnc2ccccc12 | 3.52%
CCn1nccc1CCCl.Cl | 9.16%
O=C(Nc1cccc(OCC(F)F)n1)c1cccnc1S | 7.62%
C=CC(=O)N1CCc2cc(Cl)ccc21 | 9.14%
CS(=O)(=O)OCC1CCCNC1=O (stereo not drawn) | 7.7%
O=C(CCl)NC(=O)Nc1ccccc1F | -2.13%
CN(Cc1ccsc1)C(=O)CCl | 37.6%
C=CC(=O)NCC1C=CCC1 (stereo not drawn) | 7.33%
C=CC(=O)N1CC(C)OC(COC)C1 (stereo not drawn) | 6.19%
N#Cc1ccc(Cl)cn1 | 8.27%
CCOc1ccc2nc(NC(=O)CCl)sc2c1 | 4%
CC(C)CCSc1nccnc1C#N | 0.988%
CC1(C)OB(c2ccc([N+](=O)[O-])nc2)OC1(C)C | 6.69%
O=C(c1ccc2c(=O)[nH]c(S)nc2c1)N1CCC12CCC2 | 4.97%
Cc1cc(NC(=O)CCl)ccc1Br | 32.6%
C=CC(=O)N1CCCCC1CC(N)=O (stereo not drawn) | 9.75%
N#CC(=Cc1cccnc1)C(=O)NCc1ccccc1 | 2.93%
Nc1nnc(CCCl)s1 | 6.53%
CC(C)CNc1oc(Cc2ccccc2)nc1C#N | 6.85%
O=C(CCl)Nc1ccc(Br)cc1Cl | 1.88%
COCCc1cccc(B2OC(C)(C)C(C)(C)O2)c1 | 2.75%

SMILES | Inhibition %
CCOc1cc(C)c(S(=O)(=O)n2ccnc2C)cc1C | 5.28%
CCn1cc(C=C(C#N)c2nc(C)c(C)s2)cn1 | -0.196%
O=C(CCN1C(=O)CCC1=O)NC1CCCCCC1 | 6.54%
C=CC(=O)NCC1CCCC(=O)N1 (stereo not drawn) | 13.6%
Cc1csc(C(C#N)=Cc2cnn(C)c2)n1 | 11.9%
Cc1ccc2cccc(OC(=O)N(C)C)c2n1 | 5.34%
O=C1OCCC1N1CCN(C(=O)c2ccco2)CC1 (stereo not drawn) | 2.84%
CC(C)c1nc(C#N)cs1 | 5.66%
N#CC(=Cc1cccc(OCc2ccccc2)c1)C(N)=O | 6.41%
C=CC(=O)NCC1(O)CC(OCC)C1(C)C (stereo not drawn) | -1.83%
C=CC(=O)NC(C)CCc1ccc2c(c1)OCO2 (stereo not drawn) | 4.2%
C=CC(=O)N1CCCC(c2nc3c(s2)CCCC3)C1 (stereo not drawn) | 7.94%
O=C(CCl)NCC1(c2ccc3c(c2)OCCO3)CCCC1 | 6.4%
CC1(C)OB(c2ccoc2)OC1(C)C | 3.89%
Cc1nc2ccc(B3OC(C)(C)C(C)(C)O3)cc2o1 | 3.21%
Cc1cc(C(=O)CCl)c(C)n1-c1nccs1 | 4.37%
CS(=O)(=O)N1CCC(NC(=O)CCl)CC1 | 1.74%
CN1CCC(Cc2nc(-c3cccc(B(O)O)c3)no2)CC1 | 11.6%
C=CC(=O)Nc1cccc2c1OCCC2 | 8.72%
CC1CCN(CCOc2cccc(B3OC(C)(C)C(C)(C)O3)c2)CC1 | 0.586%
Cc1cc(C(=O)CCl)c(C)n1CC(N)=O | 4.29%
CN(C)C(=O)Oc1ccc(C#N)cc1 | 3.63%
N#Cc1ccc(F)cn1 | 6.02%
COc1ccc(C=C(C#N)c2ccccn2)cc1O | 19.3%
C=CC(=O)NC1CC(N2CCC(C(F)(F)F)CC2)C1 (stereo not drawn) | 10.7%
Cc1ccccc1NC(=O)C(C#N)=Cc1cccnc1 | 13.6%

SMILES | Inhibition %
CC1(C)OB(c2cccc3cc[nH]c23)OC1(C)C | 3.3%
C=CC(=O)NCC1(c2ccccc2)CCOCC1 | 5.18%
C=CS(=O)(=O)Oc1cc(C)cc(C)c1 | 7.19%
C=CS(=O)(=O)C1CCCCC1 | 7.8%
CC(C)Oc1ccc(B2OC(C)(C)C(C)(C)O2)cc1F | 29.9%
C=CC(=O)N1CCc2cc(Cl)nnc2C1 | 6.51%
CC1CCN(C(=O)CCN2CCSC2=O)c2ccccc21 (stereo not drawn) | 15.3%
Cc1ccc(C=C(C#N)C(=O)N2CCCC2)s1 | 1.3%
C=CC(=O)Nc1cc(NC(=O)C2CCC2)ccc1F | 19.5%
N#CC=C(c1ccc(F)cc1)N1CCOCC1 | 6.31%
Cc1nscc1C(=O)NCCN1C(=O)CCC1=O | 14%
Cc1ccc(S(N)(=O)=O)cc1NC(=O)CCl | 5.6%
CC(C)(C)OC(=O)N1CCCC(CB2OC(C)(C)C(C)(C)O2)C1 (stereo not drawn) | 2.29%
N#CC(=Cc1ccsc1)C(=O)NC1CCCCC1 | 6.17%
COc1ccc(NC(=O)CCl)cc1Cl | 28.1%
C=CC(=O)NC[C@@H]1CCN(C)[C@H]1c1cccnc1 (racemic) | 8.57%
O=C(O)Cn1nc(-c2ccccc2)oc1=O | 2.77%
COC1CS(=O)(=O)CC1Cl (stereo not drawn) | 8.34%
C=CC(=O)N1CCN(CCC)C(=O)C1(C)C | 6.22%
O=S(=O)(F)[C@@H]1CN(Cc2ccccc2)C[C@H]1c1ccc(F)cc1 (racemic) | 5.52%
CS(=O)(=O)n1cnc2ccccc21 | 11.4%
C=CC(=O)N[C@@H](C)c1nccs1 | 6.7%
O=c1[nH]c(=O)n(C2CC2)c2nc(C3CC3)nc(S)c12 | 3.15%
O=C(Cc1ccc(S(=O)(=O)F)cc1)NCc1ccccn1 | 5.8%
CC1(C)OB(Cc2cc(F)cc(F)c2)OC1(C)C | 6.97%
C=CC(=O)N1CCOC2(CCOC2C)C1 (stereo not drawn) | 3.31%

SMILES | Inhibition %
Cl.O=C(CCl)N1CCN(Cc2ccccc2F)CC1 | 9.37%
CN1CCN(CCOc2ccc(B3OC(C)(C)C(C)(C)O3)cc2)CC1 | 4.31%
C=CC(=O)NC1COC(C2CC2)C1 (stereo not drawn) | 4.28%
C=CC(=O)NC1CCCn2nc(C)nc21 (stereo not drawn) | 10.1%
CCC1CCCCN1C(=O)C=Cc1cnn(C)c1 (stereo not drawn) | 5.92%
C=CC(=O)NCc1cn2ccccc2n1 | 8.6%
O=C(CN1CCSC1=O)Nc1ccc(F)c(F)c1 | 0.431%
Cc1ccc(C(=O)Nc2ccc(-c3noc(=O)[nH]3)cc2)o1 | 6.77%
CN(CCn1cnc(C#N)n1)Cc1ccc(F)cc1 | 5.53%
O=C1CN=C(S)N1c1ccccc1C(F)(F)F | 8.07%
CC(=O)Nc1ccc(NC(=O)CCl)c(C(F)(F)F)c1 | 17.2%
CS(=O)(=O)OC1CCOCC1 | 8.67%
C=CC(=O)NC1(C)CC(F)(F)C1 | 10.7%
N#CC(=Cc1ccc(F)cc1)C(=O)O | 2.9%
O=C(CCl)NC(C1CC1)C1CC1 | 7.26%
CCOc1ccc(OCC2CO2)cc1 (stereo not drawn) | 1.71%
O=C(CCl)N1CCN(C(=O)CCl)CC1 | 36.5%
C=CC(=O)N1CCCC(c2nccn2C)C1 (stereo not drawn) | 11%
C=CC(=O)N1CCc2cc(C(=O)O)ccc2C1 | 12.6%
C=CC(=O)NC(c1nccn1C)C1CCOCC1 (stereo not drawn) | 14.2%
CC(C)(C)c1cc(C#N)n[nH]1 | 3.68%
Cl.O=C(O)C1CCN(C(=O)C=Cc2cc3ccccc3o2)C1 (stereo not drawn) | 0.775%
